This is an account of results in the RNAGym collection of RNA variant scans (doi:10.7554/elife.90254).

Read counts are not given, so values of variants with three or more changes are uncertain.

B1: OR4K15 (parent)
chain: GUUAACGGUCAUAGGCCAUGGAAACUAGGAGCACCAUUUCGCUGCCAGUGAAGAAAUGAACAAAGAAAAUCUGGGCCAGGCAGGCAUCAAAAGAAAUAGUCUUGCGCUCAACCAGAAAGUCUGUAAUCAUUUUAAGGGUA

In this data set the parent is B1. Briefly: self-cleavage, relative activity (ratio to wild type); higher = more cleavage; in vitro, sequencing; the parent is a self-cleaving ribozyme.
On to A11G A23G U39C C46U U49C G50U U132A, for which the self-cleavage came out at 1.03. As for A11U U100A A110U, the self-cleavage is 0.85.

Turning to A11G G41A A52G, the self-cleavage was 1.23.

Regarding A11G A23G A89G U122C, the self-cleavage was determined as 1.03. The same measure for U9C U38A A66G A117G A135G: 1.66; for A11G A18G A94U A117U U124C: 0.17. The same measure for A11G A78G U122C: 0.14. Consider U9C U38C A51G U139A, for which the self-cleavage came to 1.34.

As for A11G U87C U108A A110U, the self-cleavage was found to be 0.01. With A11G U87A A90G, the self-cleavage came out at 1.61.

With A11G A59G A62U A67G A116G, the self-cleavage amounted to 0.28. On to A11G A33G A52G G79A U87C U122C, for which the self-cleavage was found to be 0.04. The same measure for A11U A90G U131C: 0.47. Consider A11G A18U U72C, for which the self-cleavage is 0.38. The same measure for A11G A52G A91G A114G: 0.15.

Take A11U A56G U124C G137A: the self-cleavage is 1.08. The same measure for A11U A55G U100C U108C: 0.02; for A11C A36U G73U: 0.25; for A11G A60G A135U: 0.61. The same measure for A11U A13G A91G A140G: 1.58.

Regarding A11U A24G C61U, the self-cleavage came out at 1.26. The same measure for A11G A82U U108C: 0.02; for A11G U39C A67G A91U: 1.04. In the case of A11G A36G A47G A117G, the self-cleavage stood at 0.57.

Regarding A11C A24G U72C A82G, the self-cleavage was determined as 0.26. The same measure for A11G A30G U57C A110G: 0.11; for A11G A33U U37A U100C: 2.4.

Turning to C10U A64G A90G, the self-cleavage is 0.47. The same measure for A11G U12G U72A: 0.94. The same measure for A11G A24G A52U U102C: 0.49; for A11G A90G U120A: 0.37; for C10U U43C A60G A118U U133C: 0.63. The same measure for A11G G20U A47G A62G: 0.43; for A11G A59G A60G U87A: 0.38. As for A11G U131C A140G, the self-cleavage amounted to 1.03. The same measure for A11U U19C A22G A30G: 1.53. The same measure for A11G A18G U49C A68G A78G U87C U122C: 0.15; for A11U U72C A82G U103C: 0.01. The same measure for A11G U37C A86G U139C: 0.73.

Regarding A11G C40U A117G U124C, the self-cleavage was determined as 0.95. The same measure for A11G A91G U100A U102C: 1.64. The same measure for A11U U37C A54G A60G: 0.46; for A11U U43C A67G A140G: 1.19; for A11U A24C U39A U49C A91G U133A: 0.51. The same measure for A11G A30G A52G A55G G79A: 0.18. With U9C U57C G99A, the self-cleavage was 0.21. The same measure for U9C U38C A95G: 2.32; for A11G U39C U87A G138U: 1.16. Regarding U9C U39C A51G, the self-cleavage was determined as 2.39. The same measure for U9C U38C U43C A51G U87C A96G U97C U127C: 1.08; for A11G A78C U122A: 0.13. The same measure for A11G A22G U72C: 0.37; for A11G A23G A24G U43C: 1.04.

With A11U A94G A96G A118G, the self-cleavage worked out at 1.2.

Turning to A11G U37C A63G A94U U97C, the self-cleavage is 0.83.

Regarding A11G A23G A66G U102A U132C, the self-cleavage stood at 1.42. For the variant A11U U49A U132C, the self-cleavage is 1.18. The same measure for U9C U39C U43C U57C U70C U132C: 0.65. The same measure for U9G A78G A91G: 0.37; for A11G A95G U131C: 1.84. The same measure for A11U A24C A82G A114G A116G: 0.1; for U9C U43C U131G: 1.64; for U9G A60G A69U: 1.62. As for A11U U12A U139C, the self-cleavage amounted to 1.61.

On to A11U A52U A69U, for which the self-cleavage was determined as 0.74. The same measure for A11G A82G U87C A91G U124G: 0.04; for A11G U87G A91G G115U U120C A126G: 0. The same measure for A11U G20A A54U A56U A64G U87C: 0.32; for A11G A36U A140G: 1.29; for A11U A51G A62G: 1.18. The same measure for U9C U39C A82G U87C: 0.35; for U9C U108C A118G: 0.02. A11U A51G U122C U131C: the self-cleavage was determined as 1.08. On to A11U C45G A116U A140G, for which the self-cleavage was 0.11. With A11U U38A G137U, the self-cleavage is 1.57.

Take A11U U72C U97C U100A: the self-cleavage worked out at 0.02. The same measure for A11G U43C A86G: 0.35.

Take U9C U37C U39G U49C A92U A94G A118G: the self-cleavage amounted to 0.43.

As to U9C U102A A134G, the self-cleavage came out at 0.26. The same measure for A11G C42U G44A: 0.42; for A11G A22G U97C A117G: 0.35. The same measure for A11G A36G A86G U87C U100C: 1.41.

For the variant A11G A51U U108A, the self-cleavage turned out to be 0.08.
